Measurements as given in PubChem BioAssay AID624202 (National Center for Advancing Translational Sciences (NCATS), 2012).
Hit rate of the full screen: of about 380,000 compounds, about 4,000 (1.1%) were called active. The inconclusive results got no clear call from the source; some entries with a clear call stand among them for comparison. The call rests on the fitted dose curve; in most records, active means well fitted activation curve with a large enough effect; inconclusive means small, poorly fitted or top-dose-only effect; inactive means no such curve, though single readings can be large or run the other way. A potency beside an inconclusive call is a rough fit, not a confirmed value.

assay: qHTS Assay to Identify Small Molecule Activators of BRCA1 Expression; details: MCF7-BRCA1-FFLuc reporter, luminescence, 48 h; activation: at 46.1 µM (top of the series), scaled: vehicle 0%, 10 µM genistein 100% unless noted; further: nearly all actives have a fitted effect of over 80% in size
In short: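 Using MCF7 cells harboring a BRCA1 firefly luciferase reporter, plated 2 h before compound pinning, the screen measured luminescence after 48 h incubation. Responses were normalized to DMSO and 10 microM genistein, then fitted for concentration-effect.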
Potency means the concentration at half of the fitted maximal effect; tags describe the fitted curve by direction and shape.

Row | Compound | Potency | activation
1 | CC(C)c1cc(C(=O)Nc2cccc(C(F)(F)F)c2)no1 | inactive | 
2 | COc1cccc(Nc2cc(C)c3ccccc3n2)c1 | inconclusive: 11.2 µM [activator, single point] | 
3 | COc1ccc(C(=O)OCC(=O)c2c[nH]c3ccccc23)c(OC)c1 | inconclusive: 12.6 µM [activator, single point] | 
4 | CC(C)(O)c1cc(=O)sc2nc3ccccc3n12 | inconclusive: 2.51 µM [activator, full curve, poor fit] | 
5 | CC1CCN(c2nc3ccc(C(=O)O)cc3s2)CC1 |  | inconclusive: -95.2% [activator]
6 | O=C(Nc1ccc2ccccc2c1)c1ccc(Cl)cc1Cl | inconclusive: 0.562 µM [activator, full curve, poor fit] | 
7 | Cc1ccc(NC(=O)Nc2ccc(Cl)cn2)cc1 | active: 4.47 µM | 
8 | CC(=O)Nc1ccc(-c2csc(Nc3ccccn3)n2)cc1 | inconclusive: 0.631 µM [activator, full curve, poor fit] | 
9 | O=C1NC(=O)/C(=C\c2ccc(Cl)nc2)S1 | inconclusive: 17.8 µM [activator, partial curve, poor fit] | 
10 | Cc1cc(C)cc(C(=O)Nc2c(C(=O)Nc3ccccc3F)oc3ccccc23)c1 | inactive | 
11 | C=CCN1C(=O)S/C(=C\c2ccc(N3CCOCC3)cc2C)C1=O | inconclusive: 31.6 µM [activator, single point] | 
12 | O=C1NN(c2ccccc2)C(=O)/C1=C/c1ccc(-c2cccc(C(=O)O)c2)o1 | inconclusive: 7.94 µM [activator, partial curve, poor fit] | 
13 | c1ccc2sc(N3CN(CCN4CCOCC4)CN(c4nc5ccccc5s4)C3)nc2c1 | inconclusive: 35.5 µM [activator, single point] | 
14 | CCN(CC)c1ccc(CNc2ccc(Br)cn2)cc1 | inconclusive: 11.2 µM [activator, partial curve, poor fit] | 
15 | Fc1ccc(COc2ccc(C(=S)N3CCCC3)cc2)cc1 | inconclusive: 15.8 µM [activator, partial curve, poor fit] | 
16 | CC(C)(C)c1csc(NC(=O)c2ccc(Br)o2)n1 | active: 10 µM | 
17 | Cc1nn(C)c(=O)n1-c1ccc(OCc2ccccc2)cc1 | inconclusive: 10 µM [activator, partial curve, poor fit] | 
18 | COC(=O)C1C(=O)C=C(Nc2ccc(F)cc2)CC1c1ccc(OC)cc1 (stereo not given) | inconclusive: 10 µM [activator, partial curve, poor fit] | 
19 | CCc1ccc(Nc2nnc(SCC(=O)N(C)C3CCS(=O)(=O)C3)s2)cc1 (stereo not given) | inconclusive: 1.26 µM [activator, full curve, poor fit] | 
20 | CCOC(=O)CC(=O)CSc1ncnc2c1oc1ccccc12 | inconclusive: 17.8 µM [activator, partial curve, poor fit] | 
21 | Cc1ccc(OCC(=O)O/N=C(\N)c2ccncc2)c(C)c1 | inconclusive: 2.24 µM [activator, full curve, poor fit] | 
22 | COc1ccc(NC(=O)NC(=O)c2ccccc2)cc1 | active: 1.12 µM | 
23 | CCCC(C)C(=O)Nc1ccc2c(c1)OCCO2 (stereo not given) | inconclusive: 35.5 µM [activator, single point] | 
24 | CC(C)(C)c1ccc(OCCCC(=O)N2CCOCC2)cc1 | inconclusive: 10 µM [activator, partial curve, poor fit] | 
25 | Cc1nc2cc(NCc3nc4ccccc4n3Cc3ccccc3)ccc2n1C | inconclusive: 0.794 µM [activator, full curve, poor fit] | 

Row | Compound | Potency | activation
26 | O=[N+]([O-])c1ccc(-c2nc(-c3cccs3)c(-c3cccs3)[nH]2)cc1 | inactive | 
27 | CN(C(=O)c1cc(-c2ccc3c(c2)OCO3)on1)c1ccccc1 | active: 2.82 µM | 
28 | CC1=C(C(=O)Nc2ccc(C(=O)N3CCN(c4cccc(Cl)c4)CC3)cc2)SCCO1 | inactive | 
29 | O=C(CCc1nnc(-c2ccccc2)o1)NC1CCCCC1 | inconclusive: 22.4 µM [activator, single point] | 
30 | Cc1csc(OCC(=O)Nc2ccc(C)c(C)c2)n1 | inconclusive: 3.16 µM [activator, partial curve, poor fit] | 
31 | CCOc1ccc(OCc2ccc(C(=O)NN)o2)cc1 | inconclusive: 6.31 µM [activator, partial curve, poor fit] | 
32 | O=[N+]([O-])c1ccc(N/N=C/C=C/c2ccco2)cc1 | inconclusive: 3.16 µM [activator, partial curve, poor fit] | 
33 | C/C(=N\NC(=O)c1n[nH]c2c1CCC2)c1cccs1 | inconclusive: 17.8 µM [activator, single point] | 
34 | Cc1cccc(Nc2ccc([N+](=O)[O-])cn2)c1 | active: 11.2 µM | 
35 | COc1ccccc1OCCNC(=O)CCNC(=O)c1ccccc1Cl | inactive | 
36 | CC(C1CC1)N(Cc1ccccc1)C(=S)Nc1ccccc1 (stereo not given) | inactive | 
37 | CCCC(=O)Nc1nc2ccc(C(=O)OCC)cc2s1 | inactive | 
38 | CCC(CC)c1nnc(NC(=O)C2=COCCO2)s1 | active: 10 µM | 
39 | S=C(Nc1ccc2cn[nH]c2c1)Nc1ccccc1Cl | inconclusive: 35.5 µM [activator, single point] | 
40 | CCc1c(C)sc(NC(=O)c2cccs2)c1C(N)=O | active: 3.55 µM | 
41 | O=C(N=Nc1c(O)[nH]c2ccccc12)Nc1ccccc1 | inconclusive: 1 µM [activator, full curve, poor fit] | 
42 | C=CCn1c(=O)[nH]c2cc(C(=O)N3CC=C(c4ccccc4)CC3)ccc2c1=O | inactive | 
43 | Nc1nc(CCOc2ccc(F)cc2)cs1 | inconclusive: 7.08 µM [activator, partial curve, poor fit] | 
44 | O=C(Nc1ccc2nc3n(c(=O)c2c1)CCCC3)c1cccc(F)c1 | active: 10 µM | 
45 | Cc1ccc(CSc2ccc(C(=O)N3CCOCC3)cc2[N+](=O)[O-])cc1 | inactive | 
46 | Cc1ccc(NC(=O)c2cc3ccccc3o2)cc1 | active: 12.6 µM | 
47 | COC(=O)c1c(NC(C)=O)sc(C(=O)Nc2ccccc2F)c1C | inconclusive: 3.16 µM [activator, full curve, poor fit] | 
48 | Cc1cccc(C=CC(=O)c2ccccc2)c1 | inconclusive: 8.91 µM [activator, partial curve, poor fit] | 
49 | COc1cccc2cc(C(=O)c3ccccc3)oc12 | inactive | 
50 | Cc1cc(Cl)ccc1OCCCC(=O)N1CCOCC1 | inconclusive: 11.2 µM [activator, partial curve, poor fit] | 

Row | Compound | Potency | activation
51 | COc1ccccc1NC(=O)Nc1ccc2c(c1)CCC2 | active: 2.82 µM | 
52 | Cc1c(C=O)ccc(N(C)C)c1C | inactive | 
53 | COc1cccc(NC(=O)Cn2c(=O)n(-c3ccccc3)c(=O)c3ccc(C(=O)NCc4ccc5c(c4)OCO5)cc32)c1 | inactive | 
54 | CCOc1ccc(NC(=O)c2ccccc2CO)cc1 | inconclusive: 11.2 µM [activator, partial curve, poor fit] | 
55 | O=C(CSc1ncn[nH]1)c1ccc2c(c1)OCCO2 | inactive | 
56 | COc1ccccc1NC(=O)Cn1cnc2ccc(S(=O)(=O)N3CCC(C)CC3)cc2c1=O | inactive | 
57 | COc1ccc(NC(=O)c2ccc3ccccc3c2OC)cc1 | inconclusive: 1.58 µM [activator, partial curve, poor fit] | 
58 | COc1ccc(C(=O)N/N=C\c2ccoc2)cc1 | inconclusive: 11.2 µM [activator, partial curve, poor fit] | 
59 | CN1CCc2cccc3c2[C@H]1Cc1ccc(O)c(O)c1-3 | inactive | 
60 | Cc1ccccc1N1CC(C(=O)Nc2nnc(SCCN3CCOCC3)s2)CC1=O (stereo not given) | inactive | 
61 | COc1ccc(C)cc1NC(=O)Nc1ccc(C(=O)N2CCCC2)cc1 | active: 7.94 µM | 
62 | O=C(c1ccco1)n1nc(-c2ccco2)nc1SCc1ccccc1 | inconclusive: 12.6 µM [activator, partial curve, poor fit] | 
63 | CCN(/N=C/c1cccs1)c1cc(=O)n(C)c(=O)[nH]1 | inactive | 
64 | Cc1occc1C(=O)Nc1nnc(C2CCCCC2)s1 | inconclusive: 12.6 µM [activator, partial curve, poor fit] | 
65 | CCOc1cccc(OCCOc2ccccc2[N+](=O)[O-])c1 | inconclusive: 15.8 µM [activator, partial curve, poor fit] | 
66 | CCCCCCc1ccc(-c2ncc(N)cn2)cc1 | inconclusive: 1.58 µM [activator, full curve, poor fit] | 
67 | COc1cccc(-c2noc(-c3ccc4c(c3)OCO4)n2)c1 | inconclusive: 3.16 µM [activator, partial curve, poor fit] | 
68 | Oc1ccc(Nc2ccc3ccccc3c2)cc1 | inconclusive: 20 µM [activator, single point] | 
69 | c1cnc2c(c1)ccc1cccnc12 | inactive | 
70 | Cc1nn(Cc2ccc(F)cc2)c(C)c1NC(=O)C1c2ccccc2Oc2ccccc21 | inactive | 
71 | COc1ccc(C2=NN(S(C)(=O)=O)C(c3cccs3)C2)cc1OC (stereo not given) | inconclusive: 7.94 µM [activator, partial curve, poor fit] | 
72 | CCOc1ccc(C2=Nn3c(nnc3-c3ccccc3OC)SC2)cc1 |  | inconclusive: -101% [activator]
73 | O=C(O)/C=C/C(=O)Nc1ccc(Oc2ncnc3cc(Cl)ccc23)nc1 | inconclusive: 11.2 µM [activator, partial curve, poor fit] | 
74 | COC(=O)c1ccc(CSc2nc3ccccc3s2)o1 | inconclusive: 35.5 µM [activator, single point] | 
75 | CN1CCN(c2ccc(NC(=O)c3ccc4c(c3)OCCO4)cc2)CC1 | inconclusive: 0.631 µM [activator, full curve, poor fit] | 
